Results reported in patent US20200369776A1 (ADAGENE, published 2020).

Legend:
[1] = molecular target: T1, full-length monkey CD137 on the cell surface (cynomolgus monkey, UniProt Q07011 24-179 (human entry)); test: flow cytometry, PMA + ionomycin activated T cells, MFI against log[Ab](nM)
T1 chain: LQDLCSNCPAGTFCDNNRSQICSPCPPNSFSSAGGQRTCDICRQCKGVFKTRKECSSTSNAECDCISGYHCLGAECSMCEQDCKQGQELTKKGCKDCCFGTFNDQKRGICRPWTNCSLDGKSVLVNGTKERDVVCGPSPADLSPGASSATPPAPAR

[2] = molecular target: human CD137 mutant Hu_GT150AA on HEK293F cells (human, UniProt Q07011 18-255); test: FACS, HEK293F
[3] = molecular target: human CD137 mutant Hu_PW135AA on HEK293F cells (human, UniProt Q07011 18-255); test: FACS, HEK293F

- EC50 (read off the curve) [1]: ~0.8 nM
- binding result [2]: binds
- binding result [3]: binds
B1: AG10131 (antibody, human IgG4 S228P, kappa)
heavy: EVQLVESGGGLVQPGGSLRLSCAASGFSLSTGGVGVGWIRQAPGKGLEWLALIDWADDKYYSPSLKSRLTISRDNSKNTLYLQLNSLRAEDTAVYYCARGGSDTVIGDWFAYWGQGTLVTVSSASTKGPSVFPLAPCSRSTSESTAALGCLVKDYFPEPVTVSWNSGALTSGVHTFPAVLQSSGLYSLSSVVTVPSSSLGTKTYTCNVDHKPSNTKVDKRV[human IgG4 Fc with S228P (EU numbers) skipped]
light: DIQLTQSPSSLSASVGDRVTITCRASQSIGSYLAWYQQKPGKAPKLLIYDASNLETGVPSRFSGSGSGTDFTLTISSLQPEDFATYYCQQGYYLWTFGQGTKVEIKRTVAAPSVFIFPPSDEQLKSGTASVVCLLNNFYPREAKVQWKVDNALQSGNSQESVTEQDSKDSTYSLSSTLTLSKADYEKHKVYACEVTHQGLSSPVTKSFNRGEC
notes: IgG4 (S241P); also called AG10131-IgG4
